Data as given in PubChem BioAssay AID463173 (ICCB-Longwood Screening Facility, Harvard Medical School, 2010).
Hit rate of the full screen: of about 52,000 compounds, about 4,300 (8.3%) were called active. No stated cut-off is given here; in the data, active means survival mostly below about 52% (no sharp cut-off); inactive means mostly above about 56%. This is one part of the list.

tested on: DeltatarO mutant; assay: S. aureus survival, RN4220 and DeltatarO strains – OD600, teichoic acid synthesis inhibitors, primary screen (AID 463173); settings: S. aureus RN4220 wild type/DeltatarO growth, OD600, 18 h, active compounds read low, screened at 18.75 µg/mL (by protocol)

| SMILES | survival |
| --- | --- |
| Cc1cccc(NC(=O)Cn2c(=O)n(CCCS(=O)(=O)C3CCCCC3)c(=O)c3ccccc32)c1 | inactive: 71% |
| CCCCN(CCCC)CCNC(=O)Cn1nc(CC)n2c(cc3sc(C)cc32)c1=O | inactive: 85% |
| O=S1(=O)c2ccccc2N(Cc2cccc(C(F)(F)F)c2)c2ccccc21 | inactive: 95% |
| CCOC(=O)c1ccc(-n2c(C)nc3c(cnn3-c3ccc(Cl)cc3)c2=O)cc1 | inactive: 67% |
| CCOCCCNC(=O)c1[nH]c2cc(C)ccc2c1Sc1ccc(Cl)cc1 | inactive: 85% |
| Cc1ccc(-c2onc(C)c2C)cc1S(=O)(=O)N1c2ccccc2CC1C (stereo unspecified) | inactive: 79% |
| COc1ccc(C(=O)N2c3ccccc3C(C)(c3ccc(Cl)cc3)CC2(C)C)cc1 (stereo unspecified) | active: 11% |
| COc1ccc(CCNC(=O)c2c(O)nc3c(C)cccn3c2=O)cc1 | inactive: 54% |
| Cc1cc(C)c2[nH]c(=O)c(CN(CCN3CCOCC3)C(=O)Nc3ccc(F)cc3)cc2c1 | inactive: 57% |
| Cc1c(C)n(C)c2ccc(C(=O)NCCCN3CCCCC3C)cc12 (stereo unspecified) | inactive: 107% |
| O=C(c1cc2c(s1)-c1ccccc1OC2)N1CCN(c2ccccc2F)CC1 | active: 41% |
| Cc1ccc(C)c(NC(=O)Cn2cc(C(=O)c3ccco3)c3ccccc32)c1 | inactive: 64% |
| CCCCN(CC)CCCNC(=O)c1nn(C)c2c1CS(=O)(=O)c1ccccc1-2 | inactive: 88% |
| CCOC(=O)C1CCCN(c2cc(C)nc3c(-c4ccccc4OC)c(C)nn23)C1 (stereo unspecified) | inactive: 102% |
| COc1cccc(Cn2c(CNC(=O)Cc3cccc(C)c3)nc3cccnc32)c1 | inactive: 88% |
| COc1ccc(OCC2Cn3c(nc4c3c(=O)n(C)c(=O)n4C)O2)cc1 (stereo unspecified) | inactive: 79% |
| CC(C)N(C(=O)CSc1nnc(NC(=O)c2ccco2)s1)C(C)C | inactive: 50% |
| COc1ccccc1-c1nc2c(c(SCC(=O)Nc3ccc(C)c(C)c3)n1)Cc1c(CO)cnc(C)c1O2 | inactive: 61% |
| Cc1ccc(NC(=O)c2cccc3c2C(=O)N(C2CCCCC2)C3)c(C)c1 | inactive: 116% |

| SMILES | survival |
| --- | --- |
| COc1ccc(N(CC(=O)Nc2cccc(Cl)c2C)S(=O)(=O)c2c(C)nn(C)c2C)cc1 | inactive: 62% |
| COc1ccc(C2=C(C)C(=NCCCN3CCN(c4cc(C)ccc4C)CC3)NS2(=O)=O)cc1 | inactive: 87% |
| Cc1ccc(S(=O)(=O)CC(=O)Nc2sc3c(c2C#N)CCCC3)cc1 | inactive: 119% |
| CCn1cc(CCC(=O)NCc2ccccc2OC)c2ccccc21 | inactive: 66% |
| Cc1ccc(CSCC(=O)N2CCN(c3ccccc3F)CC2)cc1 | inactive: 63% |
| CCOC(=O)Cn1c(=O)n(C2CCCCC2)c2nc(-c3cccc(F)c3)nc(C(N)=O)c21 | inactive: 83% |
| CC1=C(C(=O)Nc2ccccc2)C(c2cccnc2)n2nc(SCc3ccccc3Cl)nc2N1 (stereo unspecified) | inactive: 179% |
| Cc1ccc(S(=O)(=O)c2cc3cc(C(=O)O)ccc3oc2=O)cc1 | inactive: 120% |
| O=C(Nc1ccc(Cl)cc1)N1CCC(c2nc(-c3ccc(F)cc3)no2)CC1 | inactive: 54% |
| CC(=O)NS(=O)(=O)c1ccc(N=NN2CCCCC2)cc1 | inactive: 105% |
| CCCCCOc1c(Cl)cc(C(=O)N(Cc2ccc(C)o2)C2CCS(=O)(=O)C2)cc1Cl (stereo unspecified) | inactive: 71% |
| COc1ccc(C)c2sc(N(Cc3cccnc3)C(=O)C3CCCCC3)nc12 | inactive: 83% |
| CCCN(CCC)CCCNC(=O)C1CCN(S(=O)(=O)CC)CC1 | inactive: 109% |
| CCOC(=O)c1ccc(N2C(=O)c3n[nH]c(-c4ccco4)c3C2c2ccc(O)cc2)cc1 (stereo unspecified) | inactive: 40% |
| COc1ccc(C)cc1NC(=O)c1c(C)oc2ncn(CC(C)C)c(=O)c12 | inactive: 79% |
| CCCn1cc(S(=O)(=O)c2ccccc2)c(=O)c2cc(F)c(N3CCCC(C)C3)cc21 (stereo unspecified) | inactive: 81% |
| O=c1[nH]nc(SCc2cccc3ccccc23)c(=O)[nH]1 | inactive: 94% |
| Cc1cc2c(cc(C(=O)OC(C(=O)NC3CCCC3)c3ccccc3F)n2C)o1 (stereo unspecified) | inactive: 98% |
| CCOc1ccc(NC(=O)c2nn(C)c3c2CS(=O)(=O)c2ccccc2-3)cc1 | inactive: 60% |

| SMILES | survival |
| --- | --- |
| CCOc1ccccc1NC(=O)Cn1c(=O)n(-c2ccc(F)cc2)c(=O)c2sc3ccccc3c21 | inactive: 82% |
| COc1ccc(CCNC(=O)CCCn2c(=O)c3ccccc3n(CC(=O)Nc3cc(Cl)ccc3C)c2=O)cc1OC | inactive: 69% |
| CCOC(=O)c1c(NC(=O)COc2cc(C)ccc2C(C)C)sc(C)c1C | inactive: 63% |
| CCOc1cccc(C(c2c(C)n(C)n(-c3ccccc3)c2=O)c2c(C)n(C)n(-c3ccccc3)c2=O)c1OC | inactive: 83% |
| CCOCCCNC(=O)C(Cc1ccccc1)NS(=O)(=O)c1ccc2c(c1)c(=O)n(C)c(=O)n2C (stereo unspecified) | inactive: 88% |
| CCC/C(O)=C1\C(=O)CC(C)(C)CC1=Nc1ccccc1OC | inactive: 74% |
| COc1ccc(Cl)cc1-n1c(/C=C/c2cccc3ccccc23)nc2ccccc2c1=O | inactive: 75% |
| CC1CCN(S(=O)(=O)c2ccc(S(=O)(=O)N3CCCN(Cc4ccccc4)C3)cc2)CC1 | inactive: 106% |
| COc1ccc(-c2nc(CSc3nncn4c3cc3occc34)c(C)o2)cc1 | inactive: 96% |
| O=C(Nc1ccc2c(c1)OCO2)c1ccccc1 | inactive: 85% |
| O=C(Nc1cccc(OCc2cc(=O)n3c4c(sc3n2)CCCC4)c1)c1ccc(F)cc1 | inactive: 111% |
| Cc1ccccc1-c1noc(CCC(=O)Nc2cccc(C)c2C)n1 | inactive: 88% |
| Cc1ccc2nc(-c3cc(NC(=O)/C=C/c4ccccc4)ccc3Cl)oc2c1 | inactive: 68% |
| COc1ccc(C(=O)Nc2ccc3nc(N4CCC(C)CC4)cc(C)c3c2)cc1 | inactive: 56% |
| COc1cc(Cl)c(C)cc1NC(=O)c1cn(C2CCCC2)c(=O)c2c1c1ccccc1n2C | inactive: 109% |
| O=C(c1cccc(Cl)c1)N1CCN(CCc2ccncc2)CC1 | inactive: 81% |
| CCOc1ccc(-c2nnc(SCC(=O)NCCc3ccc(OC)c(OC)c3)nc2-c2ccc(OCC)cc2)cc1 | inactive: 98% |
| CCC(=O)N1CCN(c2ccc(NC(=O)COc3ccccc3)cc2)CC1 | inactive: 76% |
